The whole screen tested about 420,000 compounds, of which about 64,000 (15%) were called active. The shares of active, inactive and inconclusive entries below differ from those in the screen. Calls come from the whole dose curve; as a rule, active = well fitted inhibition curve with a large enough effect; inconclusive = small, poorly fitted or top-dose-only effect; inactive = flat fitted curve, though single readings scatter. No potency is given beside an inconclusive call; the fits are too rough.
Assay: qHTS for Inhibitors of human tyrosyl-DNA phosphodiesterase 1 (TDP1): qHTS in cells in absence of CPT; note: nearly all actives have a fitted effect of over 55% in size
Details: DT40 Tdp1-/- hTDP1 cells, no CPT, ATP luminescence, 48 h; activity change, negative = growth inhibition: at 46.2 µM (top of the series) unless noted
Summary of the method: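 A cellular qHTS used chicken DT40 cells lacking endogenous Tdp1 but carrying stably transfected human TDP1. Compounds were applied without camptothecin, and cell growth kinetics were judged by ATP-dependent luminescence after ≥48 hr.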
% is set by controls: 0 for no effect and ±100 for the full control effect; potency is the fitted concentration of half-maximal effect; tags give direction and shape of the fitted curve.

Row | SMILES | Potency | activity change, negative = growth inhibition
1 | CC(CC(=O)Nc1ccc(F)c([N+](=O)[O-])c1)c1ccccc1 (stereo not given) | inconclusive [inhibitor, single point] | 
2 | CCOC(=O)c1cc(-c2ccc(OC)cc2)n(CCC(=O)NC2CCCCC2)c1C | active: 16.4 µM | 
3 | COc1ccc(N(C(=O)C(C)C)S(=O)(=O)c2ccc3ccccc3c2)cc1 | inconclusive [inhibitor, single point] | 
4 | COc1cc(OC)c(OC)cc1/C=C1\SC(N2CCCCC2)=NC1=O |  | inconclusive: -31.1% [inhibitor]
5 | COc1ccc2c(CNC3CCCCCC3)c(C(=O)O)n(Cc3ccccc3F)c2c1 | inconclusive [inhibitor, single point] | 
6 | CCOCCCNC(=O)C(c1ccccc1)N(Cc1cccs1)C(=O)CNC(=O)c1ccccc1 (stereo not given) |  | inconclusive: -30.1% [inhibitor]
7 | CN(C[C@H](Cc1ccccc1)N(CCN(CCc1ccccc1)N=O)N=O)N=O | inconclusive [inhibitor, single point] | 
8 | O=C(COc1ccccc1)Nc1nccs1 | inactive | 
9 | COc1cccc(C2NC(=O)NC(O)(C(F)(F)F)C2C(=O)c2cccnc2)c1OC (stereo not given) | inactive | 
10 | O=C(Nc1ccc(F)cc1)C1CCN(S(=O)(=O)c2ccc3c(c2)CCCN3C(=O)C2CCC2)CC1 | active: 8.2 µM | 
11 | CC1C/C(=C/c2cccs2)C(=O)/C(=C/c2cccs2)C1 (stereo not given) | inconclusive [inhibitor, single point] | 
12 | CC(C)CC(=O)Nc1ccc(C(=O)CN2C(=O)NC3(CCOc4ccccc43)C2=O)cc1 (stereo not given) | inactive | 
13 | O=C(Nc1ccc2oc(-c3ccccc3)nc2c1)c1ccco1 | inconclusive [inhibitor, single point] | 
14 | COc1ccccc1CNc1ncncc1-c1ccc2c(c1)OCO2 | inconclusive [inhibitor, single point] | 
15 | COc1ccc(NC(=O)c2cccc(N3C(=O)C4C5CCC(C5)C4C3=O)c2)cc1 (stereo not given) | inconclusive [inhibitor, single point] | 
16 | Cc1cccc(OCC(=O)NC(=S)NNC(=O)c2ccncc2)c1 | inconclusive [inhibitor, partial curve, poor fit] | 
17 | O=C(CCN1CCC(c2cccs2)=N1)c1cccs1 | active: 5.17 µM | 
18 | COc1ccc(CN(Cc2cccn2C)S(=O)(=O)c2ccc(C)cc2)cc1 | inconclusive [inhibitor, single point] | 
19 | c1ccc(Cn2c(CNc3nc4ccccc4n3CCN3CCOCC3)nc3ccccc32)cc1 | inconclusive [inhibitor, single point] | 
20 | Cc1ccc(N2CCN(C(=O)CNS(=O)(=O)c3ccc(Br)s3)CC2C)cc1 (stereo not given) | inconclusive [inhibitor, single point] | 
21 | COC(=O)C1=C(C)N(Cc2ccccc2)C(=NCc2ccccc2)N[C@H]1c1cccc(C(F)(F)F)c1 | active: 5.8 µM | 
22 | CCOC(=O)c1cnc2ccc(C)cc2c1Nc1ccc(N(CC)CC)cc1 | active: 6.51 µM | 
23 | O=C(c1ccc2c(c1)OCO2)C1CCCN(Cc2c(F)ccc(F)c2F)C1 (stereo not given) | inactive | 

Row | SMILES | Potency | activity change, negative = growth inhibition
24 | CCc1nc2ccc(C(=O)NCCc3ccccn3)cn2c1N(CCC(C)C)CCN(C)C | inconclusive [inhibitor, single point] | 
25 | CC(NC(=O)CC12CC3CC(CC(C3)C1)C2)C(=O)O (stereo not given) | inactive | 
26 | COc1ccc(S(=O)(=O)N2CCCCC2)cc1NC(=O)CCCOc1ccc(C)cc1 | inconclusive [inhibitor, single point] | 
27 | Cc1c(C(=O)OC2CCCCC2)[nH]c2c1C(=O)CC(c1ccc(C(C)(C)C)cc1)C2 (stereo not given) | active: 18.4 µM | 
28 | COc1ccccc1C(=O)N1[C@@H](C(C)C)COc2cc(Br)ccc2S1(=O)=O | active: 16.4 µM | 
29 | CCOCN(C(=O)Cn1cnc2ccccc21)c1c(C)cccc1CC | active: 23.1 µM | 
30 | CC(=O)Nc1ccc(N(C(=O)Cc2c[nH]c3ccccc23)C(C(=O)NC2CCCCC2)c2ccco2)cc1 (stereo not given) | inconclusive [inhibitor, partial curve] | 
31 | COc1cc(CC(CC(=O)c2ccc3c(c2)OCO3)C(=O)O)cc(OC)c1OC (stereo not given) | inactive | 
32 | Oc1ccccc1Nc1nc(NCC2CCCO2)c2ccccc2n1 (stereo not given) | active: 25.9 µM | 
33 | CC(=O)c1ccc(NC(=O)C(C)OC(=O)c2ccc(Br)o2)cc1 (stereo not given) | inconclusive [inhibitor, single point] | 
34 | CCOC(=O)c1nc(Nc2ccc(N3CCC(C)CC3)cc2)c2ccccc2n1 | active: 5.8 µM | 
35 | O=C(CN1CCN(Cc2cccc(C(F)(F)F)c2)CC1)NCC(=O)Nc1ccc(F)c(F)c1F | inconclusive [inhibitor, partial curve, poor fit] | 
36 | O=C(c1ccc(C(F)(F)F)cc1)C1CCCN(Cc2cccn2-c2ncccn2)C1 (stereo not given) | active: 25.9 µM | 
37 | O=C(OCc1ccccc1)N1CCC2CC1c1ccc(/C=C/CCCCl)cc12 (stereo not given) | inconclusive [inhibitor, single point] | 
38 | CCSc1ncc(Cl)c(C(=O)N(Cc2ccccc2)c2ccc(OC)cc2)n1 | active: 5.8 µM | 
39 | Cc1cc(=O)[nH]c(SCC(=O)N2CCCC(C)C2)n1 (stereo not given) | inactive | 
40 | CCOc1cccc(NC(=O)c2sc3nc(-c4ccc(F)cc4)ccc3c2N)c1 | inconclusive [inhibitor, partial curve] | 
41 | O=C(NCCS(=O)(=O)N1CCN(c2cccc(Cl)c2)CC1)C1CCCC1 | inconclusive [inhibitor, single point] | 
42 | Cc1cc(C)cc(N2CC(c3nnc(NC(=O)c4ccco4)s3)CC2=O)c1 (stereo not given) | inactive | 
43 | CCn1cc(C(=O)O)c(=O)c2cnc(N3CCN(C(=S)Nc4ccccc4Cl)CC3)nc21 |  | inconclusive: -30.6% [inhibitor]
44 | O=C(c1ccccc1)N1CCCC(c2nc3c(nnn3Cc3ccc(F)cc3F)c(=O)[nH]2)C1 (stereo not given) | inconclusive [inhibitor, single point] | 
45 | O=C(NCc1ccccc1)c1cccc2c1C(=O)c1ccc(/C=C/c3ccccc3)cc1S2(=O)=O | inconclusive [inhibitor, partial curve] | 
